The labels stand for the following.
B1: TPR 5TU (parent)
chain: GGAUCUUCUCGAUCUAACAAAAAAGACAAAUCUGCCACAAAGCUUGAGAGCAUCUUCGGAUGCAGAGGCGGCAGCCUUCGGUGGCGCGAUAGCGCCAACGUUCUCAACUAUGACACGCAAAACGCGUGCUCCGUUGAAUGGAGUUUAUCAUG

The text below walks through data of the RNAGym collection of RNA variant scans (doi:10.1073/pnas.2313332121).

This sample is rich in variants without activity.

In this data set the parent is B1. In words: polymerase ribozyme fitness, log enrichment relative to wild type (log ratio); higher = more active; in vitro selection for triplet polymerase activity. The gist of the method:
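Libraries of mutants in each subunit of a heterodimeric triplet polymerase ribozyme were generated by PCR and transcribed. In triplicate, each went through one in vitro selection round: annealing with biotinylated primer, partner subunit and triplets; frozen incubation at −7 °C; gel excision of extended constructs; streptavidin-bead capture; RT-PCR. Fitness, taken from Illumina sequencing of input and output libraries, is the logarithm of a genotype's enrichment over wild-type enrichment, averaged across replicates with inverse-variance weights. The logarithm is base 2, and genotypes needed ≥10 input reads and ≥1 read per output to be kept.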
On to U6C G11A A23C G34A C69A G81A G100C, for which the “polymerase ribozyme fitness (log ratio)” value was ≤ -4.2.
C8G A16C G42C G58A G59C C95G: the “polymerase ribozyme fitness (log ratio)” value was ≤ -4.2.
Consider C8A A26U U55A G83A C87G A98G A142C C149A, for which the “polymerase ribozyme fitness (log ratio)” value is ≤ -4.2.
Turning to C8G A26C G42A C57A C87A A91U C116A U148A C149G, the “polymerase ribozyme fitness (log ratio)” value was ≤ -4.2.
For the variant U7A G50A U78A C79G G86A C87A C99G A142C, the “polymerase ribozyme fitness (log ratio)” value is ≤ -4.2.
Consider U7A U55A G62U C72U G92C, for which the “polymerase ribozyme fitness (log ratio)” value was ≤ -4.2.
As to U6G A20G U31A A41G U55G C87A A147G, the “polymerase ribozyme fitness (log ratio)” value was ≤ -4.2.
With U7G U9A A52U G84A, the “polymerase ribozyme fitness (log ratio)” value was ≤ -4.2.
Regarding U7G A52U U61A C93U A121G A137U, the “polymerase ribozyme fitness (log ratio)” value is ≤ -4.2.
As for U7A G34A G70A, the “polymerase ribozyme fitness (log ratio)” value is ≤ -4.2.
For C5U G11A A60G A66G G83C A98U A107C G143C, the “polymerase ribozyme fitness (log ratio)” value was ≤ -4.2.
U7G U45G A49C G83A C95A: the “polymerase ribozyme fitness (log ratio)” value was ≤ -4.2.
Regarding U7C U61A C75G U90C C93G, the “polymerase ribozyme fitness (log ratio)” value is ≤ -4.2.
For the variant U7C A20C A29U G50A G86A G126A, the “polymerase ribozyme fitness (log ratio)” value is ≤ -4.2.
For U6G A47C G70U C93U C116U the value was ≤ -4.2.
On to C5U G48A G68A G83U C85G, for which the “polymerase ribozyme fitness (log ratio)” value was ≤ -4.2.
Regarding U6G G50C G133U U146G, the “polymerase ribozyme fitness (log ratio)” value was ≤ -4.2.
For U6A A24U C87A, the “polymerase ribozyme fitness (log ratio)” value is ≤ -4.2.
Turning to U6C C8A A12G C27U G34C U61A C85U A98G G128A, the “polymerase ribozyme fitness (log ratio)” value was ≤ -4.2.
For U7G A23U U53G G92U G128A U148A the value was ≤ -4.2; for C8G C14G U53A U55A C76A C96A, ≤ -4.2.
For C8A A40C A52C C54A C76A C116U, the “polymerase ribozyme fitness (log ratio)” value is ≤ -4.2.
Consider C8A A41U G67A G141U, for which the “polymerase ribozyme fitness (log ratio)” value was ≤ -4.2.
Take U6G A23C G67U A73G A98G G100A A119U: the “polymerase ribozyme fitness (log ratio)” value was ≤ -4.2.
Take C5U U13A C54A U90C C93U C132U: the “polymerase ribozyme fitness (log ratio)” value is ≤ -4.2.
The same measure for U7C C8G A21C C27A A52C G68A G92A C105G: ≤ -4.2; for U6A A30U G84A C93A: ≤ -4.2; for U7A A41C A47C A52U G74A U102G A119U G136C U139G U146G: ≤ -4.2.
Turning to U6C G62A G71A G124C, the “polymerase ribozyme fitness (log ratio)” value is ≤ -4.2.
Regarding U6C A22U C35U A60U A89G A91U A106G, the “polymerase ribozyme fitness (log ratio)” value was ≤ -4.2.
Regarding C8A A91C, the “polymerase ribozyme fitness (log ratio)” value was ≤ -4.2.
For the variant U6A A12U A24U U148G, the “polymerase ribozyme fitness (log ratio)” value was ≤ -4.2.
Consider C8A U31C A64U C96A A113G A137G A142U A150C, for which the “polymerase ribozyme fitness (log ratio)” value was ≤ -4.2.
Regarding U6A C10G A20C A28U A49G G84U G92A C108A, the “polymerase ribozyme fitness (log ratio)” value is ≤ -4.2.
The same measure for U6C A23U C76G G80U G88A C96U U135C: ≤ -4.2.
Regarding C8A A17G C27G A64U G94A G117A C123A U148C, the “polymerase ribozyme fitness (log ratio)” value is ≤ -4.2.
For C8A G59C G67C G94U C96U the value was ≤ -4.2; for C8A G48U A52G G83A C85A C93U, ≤ -4.2.
For U7G A16C C35A A40U U53A C79U C87U U135C, the “polymerase ribozyme fitness (log ratio)” value was ≤ -4.2.
Turning to U6A A40C G46U A60G A91G C99G C105U G143A, the “polymerase ribozyme fitness (log ratio)” value is ≤ -4.2.
The same measure for C5U U78A C93G: ≤ -4.2.
Turning to U6A A19C A41U U55G G84A G117A C125A U135G U139C A142C, the “polymerase ribozyme fitness (log ratio)” value was ≤ -4.2.
As to C8G A12C A20U U31G C32G C51A C93G U102A A121C C125G, the “polymerase ribozyme fitness (log ratio)” value is ≤ -4.2.
Regarding C8A U31A A37G C93A, the “polymerase ribozyme fitness (log ratio)” value was ≤ -4.2.
For the variant C8A C57G C87U, the “polymerase ribozyme fitness (log ratio)” value was ≤ -4.2.
As to C8G C51G C63U C75A G83C G86A C93A G126U, the “polymerase ribozyme fitness (log ratio)” value was ≤ -4.2.
For C8G A26U A52C G67C C99U U101G A119U the value was ≤ -4.2.
U7A C87U U90A C95G C118U: the “polymerase ribozyme fitness (log ratio)” value is ≤ -4.2.
Turning to C8G C14U C57U G62U C87A G126U, the “polymerase ribozyme fitness (log ratio)” value is ≤ -4.2.
In the case of U7A C18G G34A C99U A119U, the “polymerase ribozyme fitness (log ratio)” value was ≤ -4.2.
For the variant C5U G70U C85G A107G U139G, the “polymerase ribozyme fitness (log ratio)” value was ≤ -4.2.
As to U7A A22C G71A A73U G88U A91C G126U A137G, the “polymerase ribozyme fitness (log ratio)” value is ≤ -4.2.
Consider C8G C14U U53G G83U G88U C93G C105U G136U A137U U146G U148A, for which the “polymerase ribozyme fitness (log ratio)” value is ≤ -4.2.
On to C8A A52C G88C A91C, for which the “polymerase ribozyme fitness (log ratio)” value is ≤ -4.2.
As to U7A G68A G80A G84U C105U, the “polymerase ribozyme fitness (log ratio)” value was ≤ -4.2.
As to U6A C93U A98G C103A, the “polymerase ribozyme fitness (log ratio)” value was ≤ -4.2.
The same measure for U6G C10U C38G C93G A142C: ≤ -4.2; for U6A A16C A24G G50C C57A G58A C85G: ≤ -4.2; for U7A A26U U53A A73U G92C U104A: ≤ -4.2.
Take C8G G94C A106C C116U: the “polymerase ribozyme fitness (log ratio)” value is ≤ -4.2.
The same measure for U7G U13C A29C G48A U55A A73G C95G U104C: ≤ -4.2.
U7G A19U A29C G83C C87U G117C: the “polymerase ribozyme fitness (log ratio)” value is ≤ -4.2.
Consider U6G A49C G67C U78C U90G C105G C114A C125G U145G, for which the “polymerase ribozyme fitness (log ratio)” value is ≤ -4.2.
The same measure for C8G A39C C51U U56A G88C U135A A137C: ≤ -4.2.
For U6G A12C C14U A19U A24U A52C G67U C99U, the “polymerase ribozyme fitness (log ratio)” value was ≤ -4.2.
U6G C14U A37U C51U U55G C105U C149A: the “polymerase ribozyme fitness (log ratio)” value was ≤ -4.2.
In the case of C8G C93G A150G, the “polymerase ribozyme fitness (log ratio)” value was ≤ -4.2.
For the variant U7C A39C C116G U139G A150C, the “polymerase ribozyme fitness (log ratio)” value is ≤ -4.2.
For the variant C8G C18U A19G A40C U55A G74C U78G, the “polymerase ribozyme fitness (log ratio)” value was ≤ -4.2.
Regarding C8G A49C G74A C85A C108A, the “polymerase ribozyme fitness (log ratio)” value is ≤ -4.2.
With U7A C51A G58A C76A C96A A122U G128A C149U, the “polymerase ribozyme fitness (log ratio)” value is ≤ -4.2.
With C8G C43A C87U U134G, the “polymerase ribozyme fitness (log ratio)” value was ≤ -4.2.
As for U6G C54A C85U G86A C87U C93U G141A, the “polymerase ribozyme fitness (log ratio)” value is ≤ -4.2.
For U6A A24C A26G A28C C93A G128A, the “polymerase ribozyme fitness (log ratio)” value was ≤ -4.2.
In the case of U6A A24C G48U G50U G71A G88C, the “polymerase ribozyme fitness (log ratio)” value is ≤ -4.2.
Take C5U U7C C27U G65C C85A G86A C125U: the “polymerase ribozyme fitness (log ratio)” value was ≤ -4.2.
For U7A G58C G88U C99A C149U, the “polymerase ribozyme fitness (log ratio)” value was ≤ -4.2.
For U6C A40C C69U C72A C76G C93G the value was ≤ -4.2.
For the variant C8A G58U G67U U78G C116G C118A, the “polymerase ribozyme fitness (log ratio)” value was ≤ -4.2.
Regarding U7A A49C G86A G88A C116A A119U C131U, the “polymerase ribozyme fitness (log ratio)” value is ≤ -4.2.
For U6G U7A C54U C96G A113G C123A the value was ≤ -4.2; for U6A C85A C108U C114U, ≤ -4.2.
On to C8A A12U A19U U55A G83A A150G, for which the “polymerase ribozyme fitness (log ratio)” value was ≤ -4.2.
